The supplement of paper PMC12645437, “Orthogonal IMiD-Degron Pairs Induce Selective Protein Degradation in Cells” (ACS Chemical Biology, 2025)
The list shows a part of the results.

B1: Q9UKT9 (peptide)
chain: FECEICGHNFTQKGNLLRHIKL
B2: Q9UKT9 (peptide)
chain: FGCPQCGANFTQKGNLLRHIKL
B3: Q9UKT9 (peptide)
chain: FWCNVCGAQFTQKGNLLRHIKL
B4: Q9UKT9 (peptide)
chain: FFCEQCGAEFTQKGNLLRHIKL
B5: Q9UKT9 (peptide)
chain: FWCNQCGRHFTQKGNLLRHIKL
B6: Q9UKT9 (peptide)
chain: FMCPICGHTFTQKGNLLRHIKL
B7: Q9UKT9 (peptide)
chain: LNCEICGFACTQKGNLLRHIKL
B8: Q9UKT9 (peptide)
chain: LFCEICGFSCTQKGNLLRHIKL
B9: Q9UKT9 (peptide)
chain: FCCNICGATFTQKGNLLRHIKL
B10: Q9UKT9 (peptide)
chain: FICDQCGAHFTQKGNLLRHIKL
B11: Q9UKT9 (peptide)
chain: FFCEICGRQFTQKGNLLRHIKL
B12: Q9UKT9 (peptide)
chain: FHCSVCGHSFTQKGNLLRHIKL
B13: Q9UKT9 (peptide)
chain: FFCEVCGAVFTQKGNLLRHIKL
B14: Q9UKT9 (peptide)
chain: FVCPQCGAVFTQKGNLLRHIKL
B15: Q9UKT9 (peptide)
chain: FKCEQCGAWFTQKGNLLRHIKL
B16: Q9UKT9 (peptide)
chain: FVCNQCGREFTQKGNLLRHIKL
B17: Q9UKT9 (peptide)
chain: FGCNQCGACFTQKGNLLRHIKL
B18: Q9UKT9 (peptide)
chain: FNCPVCGASFTQKGNLLRHIKL
B19: Q9UKT9 (peptide)
chain: FHCEICGAAFTQKGNLLRHIKL
B20: Q9UKT9 (peptide)
chain: LWCPICGFTCTQKGNLLRHIKL
B21: Q9UKT9 (peptide)
chain: FTCPVCGAYFTQKGNLLRHIKL
B22: Q9UKT9 (peptide)
chain: LSCEICGFLCTQKGNLLRHIKL
B23: Q9UKT9 (peptide)
chain: FQCDICGADFTQKGNLLRHIKL
B24: Q9UKT9 (peptide)
chain: FHCNVCGATFTQKGNLLRHIKL
B25: Q9UKT9 (peptide)
chain: FCCEICGAMFTQKGNLLRHIKL
B26: Q9UKT9 (peptide)
chain: FYCPICGRPFTQKGNLLRHIKL
B27: Q9UKT9 (peptide)
chain: FDCEICGAAFTQKGNLLRHIKL
B28: Q9UKT9 (peptide)
chain: FWCNQCGHRFTQKGNLLRHIKL
B29: Q9UKT9 (peptide)
chain: FKCNQCGAEFTQKGNLLRHIKL
B30: Q9UKT9 (peptide)
chain: FNCEICGRAFTQKGNLLRHIKL
B31: Q9UKT9 (peptide)
chain: FCCPVCGANFTQKGNLLRHIKL
B32: Q9UKT9 (peptide)
chain: FWCPICGRCFTQKGNLLRHIKL

Biological target: no compound (DMSO)
Assay: log2 fold change of degron read counts, EGFP-low vs EGFP+ sorted cells; higher = lower degron-EGFP level without compound (poor expression or instability)
Conditions: compound: DMSO control; 18 h
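Note: jurkat cells carrying a lentiviral library of mutant zinc finger degrons fused to EGFP plus mCherry, mCherry+ cells FACS sorted, degron abundance counted by next-generation sequencing.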

| Sequence | log2 fold change of degron read counts |
| --- | --- |
| B1 | -1.18 |
| B2 | -0.704 |
| B3 | 0.352 |
| B4 | -2.51 |
| B5 | 1.33 |
| B6 | -0.583 |
| B7 | 0.316 |
| B8 | 0.459 |
| B9 | -0.624 |
| B10 | -1.05 |
| B11 | -1.23 |
| B12 | -0.0108 |
| B13 | -0.507 |
| B14 | -0.564 |
| B15 | -0.471 |
| B16 | -1.57 |

| Sequence | log2 fold change of degron read counts |
| --- | --- |
| B17 | -0.7 |
| B18 | -0.516 |
| B19 | -2.24 |
| B20 | 1.97 |
| B21 | -0.0582 |
| B22 | 0.756 |
| B23 | -1.3 |
| B24 | -0.749 |
| B25 | -0.665 |
| B26 | -0.109 |
| B27 | -1.04 |
| B28 | 1.32 |
| B29 | -1.64 |
| B30 | -1.64 |
| B31 | -0.679 |
| B32 | 0.103 |
